# Test results reported in the supplement of paper PMC4166925.
# ± gives the standard deviation of the averaged measurements. Over roughly 33,000 sequences, “E-score (dimensionless, -0.5 to 0.5)” has its median near -0.049; the highest 2% begin near 0.37. Some of the results follow.
# System: T1, PmTbr T-box DNA-binding domain (GST fusion)
# T1 sequence: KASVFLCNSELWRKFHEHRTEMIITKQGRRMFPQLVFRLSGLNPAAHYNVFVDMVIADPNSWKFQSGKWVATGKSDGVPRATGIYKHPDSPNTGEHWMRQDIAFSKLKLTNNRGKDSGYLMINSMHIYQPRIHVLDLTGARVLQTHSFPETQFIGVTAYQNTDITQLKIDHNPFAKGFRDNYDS
# Test: PBM E-score of 8-mer (E-score (dimensionless, -0.5 to 0.5)); Tbr is Tbrain of the sea star Patiria miniata (Pm) or the sea urchin Strongylocentrotus purpuratus (Sp); higher = stronger binding preference; most listed sequences are background and not binding sites
# Details: the construct has about 5 more residues each side
# Procedure, shortened: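 Primer extension turned Universal Agilent oligonucleotide arrays double-stranded. They were incubated with 200 nM protein in PBS (pH 7.5); the protein was a GST-fused Tbr T-box DNA-binding domain expressed in BL21 E. coli at 20 °C and purified on glutathione. Every ungapped 8-mer was scored from the scanned, quantified probe intensities, and the Universal PBM Analysis Suite gave each an enrichment E-score averaged over duplicate arrays.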
row,Sequence,PBM E-score of 8-mer
1,ACCGAGAG,-0.0794 ± 0.012
2,AACGGACC,-0.109 ± 0.082
3,GCCGCTTA,-0.0463 ± 0.018
4,CCGAAGAG,-0.172 ± 0.08
5,GGGCGTGA,0.429 ± 0.0092
6,TATACAAA,-0.128 ± 0.064
7,GTCGACAA,0.295 ± 0.022
8,ACAAGTTC,0.152 ± 0.083
9,CCAATGAG,-0.195 ± 0.063
10,AGCTGTCG,0.3103 ± 0.003
11,AATTACGC,-0.0811 ± 0.038
12,CTGACGGC,-0.0163 ± 0.0013
13,ATCACAGA,0.129 ± 0.011
14,AGGCAAAA,-0.162 ± 0.044
15,AGCCAGAT,-0.164 ± 0.014
16,GGAACTAA,-0.03 ± 0.01
17,CGATAGTA,-0.0992 ± 0.081
18,CTGTTTGC,0.0865 ± 0.013
19,CTACATGA,-0.0685 ± 0.044
20,CGATTGAA,0.007 ± 0.0015
21,AGGCCACG,-0.298 ± 0.036
22,TAGCGCGA,0.3803 ± 0.0017
23,AGCGTTAA,0.265 ± 0.06
24,ACGTGTTA,0.442 ± 0.015
25,AGATAGCA,0.132 ± 0.017

row,Sequence,PBM E-score of 8-mer
1,AGAAGGAA,-0.158 ± 0.066
2,ATTGTTCA,-0.0585 ± 0.03
3,CTAGGCGA,0.0555 ± 0.032
4,GACTTTAC,-0.124 ± 0.039
5,ACGGGAAC,-0.105 ± 0.032
6,ACTGAGTG,0.152 ± 0.014
7,GAAGTGTC,0.454 ± 0.0065
8,AGGTTTCA,0.178 ± 0.097
9,ACTAAGCA,-0.23 ± 0.048
10,CCTGCTGC,-0.114 ± 0.039
11,CATTCTAA,-0.168 ± 0.0046
12,AATCACTC,0.064 ± 0.0014
13,ATCAGAGA,-0.329 ± 0.017
14,ACGCACCA,0.0123 ± 0.072
15,TACTATCA,-0.101 ± 0.12
16,CATATACC,-0.222 ± 0.0056
17,GTTTCGCA,0.3685 ± 0.0028
18,GGGGCAGA,-0.165 ± 0.033
19,ACCCGCGT,0.0988 ± 0.05
20,GAATCGCC,0.0244 ± 0.02
21,TTGGTAAA,-0.0778 ± 0.047
22,AGGCTTCC,-0.191 ± 0.065
23,CCCGTGAA,0.121 ± 0.039
24,CGGATGTA,-0.231 ± 0.047
25,AGGAGGCA,-0.148 ± 0.06

row,Sequence,PBM E-score of 8-mer
1,TGATCTAA,-0.159 ± 0.099
2,GTAGAAAA,-0.138 ± 0.0086
3,AGCCGATA,-0.128 ± 0.071
4,GGTCTGAA,-0.328 ± 0.021
5,CTTGACTC,-0.217 ± 0.046
6,ACTTACGG,-0.0227 ± 0.053
7,ATGAGGCC,-0.283 ± 0.021
8,GCTGTGGA,0.0103 ± 0.095
9,ACAGACGG,0.106 ± 0.028
10,AAATGGCC,-0.316 ± 0.0079
11,CAAAGGGA,-0.136 ± 0.0072
12,TGCGTTAA,0.109 ± 0.017
13,AGTACCAA,-0.13 ± 0.028
14,CCGGGCCC,-0.0837 ± 0.077
15,AGCACGTC,0.19 ± 0.017
16,ACGGCGGA,-0.168 ± 0.031
17,CACGGTTA,0.00239 ± 0.015
18,CAAATTCC,0.0365 ± 0.027
19,CCATAGAA,-0.00586 ± 0.0026
20,AACATCAC,0.179 ± 0.025
21,GGAATCGA,-0.0922 ± 0.025
22,GTATCACA,0.27 ± 0.019
23,TTACAGAA,-0.093 ± 0.056
24,AGTCGTGG,-0.0635 ± 0.048
25,GAACAAAC,-0.128 ± 0.055

row,Sequence,PBM E-score of 8-mer
1,ATACACAC,0.158 ± 0.025
2,ACAGTATG,0.086 ± 0.1
3,AGTCCACA,0.153 ± 0.065
4,CACTTCCA,0.351 ± 0.048
5,AGCGCCTC,0.273 ± 0.033
6,CATATAAC,-0.104 ± 0.043
7,ACCCCACT,0.0317 ± 0.038
8,CGGGTTCA,0.0392 ± 0.03
9,AAATGTAT,-0.167 ± 0.056
10,GGTCTTCA,-0.0677 ± 0.014
11,CAAGCCGA,-0.114 ± 0.064
12,AAGCACAG,-0.192 ± 0.079
13,AACATTAT,-0.133 ± 0.0017
14,CAGATGTA,-0.0221 ± 0.013
15,GGGGATAA,-0.177 ± 0.061
16,AAAGCAAC,0.00449 ± 0.025
17,AACAGTCG,0.119 ± 0.029
18,TCTAGCCA,-0.165 ± 0.016
19,CCCTTCGC,0.0769 ± 0.021
20,ACTCCGGG,0.00388 ± 0.021
21,GCCAAGTA,-0.0151 ± 0.041
22,CGCTACTA,0.0835 ± 0.085
23,GCGCTGTA,0.161 ± 0.0023
24,GCACGAAA,-0.0162 ± 0.018
25,ATTCGTGA,0.138 ± 0.054

row,Sequence,PBM E-score of 8-mer
1,ACATTGCG,0.0804 ± 0.046
2,AACACCCA,0.348 ± 0.029
3,ATCATATC,-0.0297 ± 0.00054
4,GACAATGA,0.17 ± 0.063
5,GAGTGCCA,0.242 ± 0.0057
6,ATAGAGAT,-0.0802 ± 0.0069
7,GCAGCCGA,-0.05 ± 0.043
8,ATCAACGA,-0.0116 ± 0.013
9,CAGGACAC,0.15 ± 0.08
10,TATAATCA,-0.0352 ± 0.059
11,AAATATAT,-0.0943 ± 0.13
12,AACAACCG,-0.0792 ± 0.069
13,CGCAAAAA,0.169 ± 0.015
14,CAAGAATC,-0.114 ± 0.019
15,TGCTGACA,0.217 ± 0.048
16,CCCTGCGG,-0.122 ± 0.032
17,AACACTCT,0.338 ± 0.034
18,AAAAGTGG,0.107 ± 0.0099
19,ACAATGTC,-0.048 ± 0.0089
20,AGTACTAT,-0.14 ± 0.0032
21,CCAAATGC,-0.133 ± 0.013
22,ATTACTCA,0.103 ± 0.035
23,ACTATGCC,-0.0992 ± 0.096
24,TCGGGTCA,-0.0478 ± 0.1
25,CGCTATAA,0.164 ± 0.045

row,Sequence,PBM E-score of 8-mer
1,AAGCGTGT,0.235 ± 0.017
2,ATCCGCCG,-0.161 ± 0.0068
3,AGTTGTTA,0.388 ± 0.011
4,AGCCAGTG,-0.234 ± 0.027
5,AGTTAACC,-0.135 ± 0.015
6,AGGAGCAT,-0.125 ± 0.048
7,CGAGACGC,-0.126 ± 0.029
8,AATACATT,-0.0798 ± 0.037
9,CGCATAGA,-0.0835 ± 0.0052
10,CACTTGAA,0.115 ± 0.098
11,AAACGCTT,-0.09315 ± 2.8e-05
12,TCTTAACA,0.187 ± 0.027
13,CCCGATGA,-0.0463 ± 0.07
14,TATGGCGA,0.00654 ± 0.026
15,ATAGAGAA,-0.171 ± 0.047
16,ACAGGCAC,0.0731 ± 0.097
17,CAGTCAAA,-0.0874 ± 0.11
18,CTAATCGA,-0.231 ± 0.005
19,AATACCGA,-0.134 ± 0.016
20,ACTCTGAA,-0.179 ± 0.023
21,CGTGACTA,0.0654 ± 0.0058
22,CAATGCAG,-0.227 ± 0.0046
23,AGATAAGA,-0.171 ± 0.012
24,CTTACAGA,0.0993 ± 0.0083
25,AGCGCAGC,-0.1817 ± 0.001

row,Sequence,PBM E-score of 8-mer
1,ACGTAGGC,-0.00647 ± 0.049
2,AGATACCG,-0.182 ± 0.024
3,GGCGTTAC,0.312 ± 0.03
4,ACCTTAGG,0.016 ± 0.015
5,ACGAAGGG,-0.218 ± 0.0031
6,CCGTCACA,0.325 ± 0.024
7,TACTTTCA,0.0461 ± 0.077
8,CTTACATA,-0.124 ± 0.016
9,CAATCGTC,0.0177 ± 0.056
10,AAAGCTCT,-0.13 ± 0.035
11,AACCTATC,-0.165 ± 0.17
12,AGCGGAGG,-0.135 ± 0.0056
13,CTTGGCTC,-0.202 ± 0.04
14,CCCCCTTA,-0.343 ± 0.012
15,AGCTTGAC,-0.208 ± 0.03
16,GAATCACA,0.232 ± 0.005
17,CCCTACTC,-0.134 ± 0.033
18,AATCTACA,0.0314 ± 0.048
19,AGTGACAC,0.44 ± 0.0087
20,CGCTTAAC,0.0623 ± 0.0075
21,CAGACGAG,-0.189 ± 0.017
22,CCGCGCAG,-0.0277 ± 0.018
